# Measured values published in the supplement of paper PMC4166925.
# ± gives the standard deviation of the averaged measurements. Over roughly 33,000 sequences, “E-score (dimensionless, -0.5 to 0.5)” has its median near -0.049; the highest 2% begin near 0.37. The list shows a part of the results.
# Tested on: T1, PmTbr T-box DNA-binding domain (GST fusion)
# T1 sequence: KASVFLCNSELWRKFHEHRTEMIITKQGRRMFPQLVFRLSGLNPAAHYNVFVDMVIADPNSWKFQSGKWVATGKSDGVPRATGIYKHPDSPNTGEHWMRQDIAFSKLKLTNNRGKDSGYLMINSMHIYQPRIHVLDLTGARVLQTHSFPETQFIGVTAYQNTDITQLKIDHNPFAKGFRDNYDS
# Assay: PBM E-score of 8-mer (E-score (dimensionless, -0.5 to 0.5)); Tbr is Tbrain of the sea star Patiria miniata (Pm) or the sea urchin Strongylocentrotus purpuratus (Sp); higher = stronger binding preference; most listed sequences are background and not binding sites
# Conditions: the construct has about 5 more residues each side
# Experimental: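 Universal protein-binding microarray (Agilent AMADID 016060, 60-bp probes with a 35-bp variable region) incubated with 200 nM GST-fused Patiria miniata Tbr T-box DNA-binding domain (residues 272-466) in PBS pH 7.5. Scored for every ungapped 8-mer (given with its reverse complement) by the Universal PBM Analysis Suite as E-score (modified Wilcoxon-Mann-Whitney enrichment, range -0.5 to 0.5; >0.45 counts as bound) and Z-score of median probe intensity. Two replicate arrays (datasets 1 and 2).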
row,Sequence,PBM E-score of 8-mer
1,AGGTAAGC,-0.258 ± 0.036
2,TCAACCCA,-0.169 ± 0.013
3,CCAGCCGG,-0.000265 ± 0.042
4,TCAGTGGA,-0.213 ± 0.02
5,ACAAACGA,0.0104 ± 0.028
6,TCAAAAAA,-0.181 ± 0.07
7,AGTGATAG,0.23 ± 0.018
8,TGCACGAA,-0.109 ± 0.05
9,ACTGTTAT,0.0989 ± 0.046
10,AAGTAACT,0.112 ± 0.057
11,ATCTGCAT,-0.08088 ± 0.00077
12,GCCTCACA,0.224 ± 0.031
13,ATCGACCG,-0.064 ± 0.018
14,CGAGTTGC,0.135 ± 0.035
15,CGAAATCA,0.131 ± 0.011
16,CGAGAAGA,0.0423 ± 0.037
17,AAGGCGAT,0.0522 ± 0.036
18,CTGGGCGA,-0.0186 ± 0.043
19,ATCGCGAA,0.335 ± 0.046
20,GCCTTGAC,-0.0059 ± 0.00044
21,AAGTAACA,0.224 ± 0.08
22,AAAAAGGT,0.0924 ± 0.057
23,ACTACGAG,0.0557 ± 0.059
24,CCGCTGAA,-0.279 ± 0.04
25,CCTGCTCA,-0.197 ± 0.026

row,Sequence,PBM E-score of 8-mer
1,AATCGCAT,0.0479 ± 0.038
2,ATTGAAGC,-0.0742 ± 0.045
3,CCAACACA,0.241 ± 0.023
4,TATTTGAA,-0.163 ± 0.018
5,AAGGTCTA,-0.334 ± 0.059
6,ACTCATAC,0.0906 ± 0.014
7,CTTAGACA,0.0724 ± 0.066
8,CTAGTAGC,-0.113 ± 0.066
9,CCAGCGGC,0.121 ± 0.067
10,GCCCAGAA,-0.0796 ± 0.018
11,CCTTAGCG,0.198 ± 0.062
12,GCGCGCAC,0.155 ± 0.026
13,CGGTGACG,0.179 ± 0.047
14,CTCATCTC,-0.018 ± 0.016
15,ATAACTAT,-0.00859 ± 0.12
16,TACTAATA,-0.00424 ± 0.037
17,GGCATGAC,0.133 ± 0.049
18,AATGCGTG,0.194 ± 0.024
19,AATCCGGA,-0.0907 ± 0.031
20,CGCCTCAA,0.0195 ± 0.0091
21,CACTTTTA,0.203 ± 0.003
22,CGTGTGTA,0.00111 ± 0.014
23,AACGCGAA,0.186 ± 0.0084
24,GTCGAGTA,0.00721 ± 0.0094
25,GTTAGACA,0.0496 ± 0.014

row,Sequence,PBM E-score of 8-mer
1,AGTGAGTA,0.0722 ± 0.026
2,ACGCCGCC,0.0426 ± 0.041
3,GGCTCTTA,-0.264 ± 0.028
4,AACCTCAA,-0.113 ± 0.028
5,CATATGCG,0.0977 ± 0.0099
6,GTCCGGTA,-0.329 ± 0.058
7,ATTTACCG,-0.215 ± 0.0027
8,CGTATTTC,-0.139 ± 0.029
9,ATGGATCC,-0.0796 ± 0.058
10,GATTCGAC,-0.031 ± 0.096
11,ATGGGGTA,-0.219 ± 0.1
12,TCGGAAGA,-0.0733 ± 0.074
13,CGAGGACG,-0.0441 ± 0.0044
14,GTACCAAA,-0.168 ± 0.069
15,GGGTTGTA,-0.0196 ± 0.042
16,TGCGCGAA,0.307 ± 0.017
17,TCCATCGA,-0.121 ± 0.022
18,GGTAGAGA,-0.124 ± 0.0055
19,AAATCGCG,0.349 ± 0.0082
20,TCTACTAA,0.0659 ± 0.0013
21,CAATACCA,0.0795 ± 0.018
22,ACGGAGCA,-0.0774 ± 0.0075
23,ACTTTACT,-0.111 ± 0.12
24,CAACTGGC,0.211 ± 0.037
25,CCTCCACC,-0.0543 ± 0.035

row,Sequence,PBM E-score of 8-mer
1,ACGATCAA,-0.162 ± 0.013
2,GAGATCGA,0.00632 ± 0.01
3,GCTGACCC,-0.159 ± 0.14
4,GCGGCGAA,-0.0974 ± 0.1
5,GGGCTTAA,-0.183 ± 0.044
6,TAGTAGAA,-0.194 ± 0.044
7,ATTGTAGA,-0.0842 ± 0.022
8,ATACAGTG,-0.0789 ± 0.064
9,ACTTGGTA,0.0808 ± 0.016
10,CTGGGGAC,0.121 ± 0.066
11,GGGGTACC,-0.183 ± 0.033
12,AGTTATTC,-0.195 ± 0.0077
13,AAGCCTTA,-0.276 ± 0.028
14,GTCGTGCA,0.0573 ± 0.028
15,AAAGACTG,-0.228 ± 0.065
16,AGTGGTTA,0.00971 ± 0.076
17,AGGGTAGG,-0.0131 ± 0.00042
18,CCATACGC,-0.137 ± 0.034
19,ACCTGCTC,0.00244 ± 0.013
20,CCCCACTC,-0.0572 ± 0.09
21,AGCTGGCG,0.119 ± 0.021
22,TAGAGTGA,0.178 ± 0.012
23,CATGTAAC,-0.0898 ± 0.0084
24,AGACTAAT,-0.251 ± 0.079
25,ACCAGATA,-0.156 ± 0.054

row,Sequence,PBM E-score of 8-mer
1,CACCAATA,0.224 ± 0.056
2,GAGCCGTA,-0.0341 ± 0.054
3,GCAATTCA,0.0777 ± 0.042
4,CGCACGTC,0.354 ± 0.02
5,CATTTGGG,-0.2614 ± 0.002
6,AAGTCTAT,-0.309 ± 0.089
7,CAAAGGAA,-0.165 ± 0.013
8,CGCTATTA,0.159 ± 0.054
9,AGGTATCG,0.123 ± 0.032
10,CTGGGGTC,-0.208 ± 0.033
11,GACATCTC,-0.14 ± 0.016
12,AAGAGGTA,-0.158 ± 0.021
13,TATGCGAA,0.157 ± 0.0088
14,CGTTGTAG,-0.00943 ± 0.05
15,AACGCTTA,0.166 ± 0.021
16,CTTAGGCA,-0.0866 ± 0.011
17,ACCGTCAC,0.288 ± 0.0081
18,CTTGGCTA,-0.0844 ± 0.048
19,CCACCCTC,0.0601 ± 0.017
20,CCCAGGAA,-0.142 ± 0.023
21,GAAGACGA,-0.305 ± 0.0095
22,ACGTTGCA,-0.145 ± 0.0049
23,ATTCGAAT,-0.0925 ± 0.017
24,ATGCCGAA,-0.199 ± 0.021
25,ACTATTTG,-0.139 ± 0.031

row,Sequence,PBM E-score of 8-mer
1,AGTGGACG,-0.104 ± 0.032
2,GACCCCGC,-0.216 ± 0.0024
3,AACCTGTA,-0.252 ± 0.046
4,GTAACTAC,-0.097 ± 0.15
5,AAATCTCT,0.0435 ± 0.048
6,CGGAGGCA,-0.298 ± 0.015
7,CGACAGAC,0.139 ± 0.032
8,CGAAGCCA,-0.104 ± 0.016
9,AGGTACAA,-0.0949 ± 0.057
10,ATTCCGAC,0.0363 ± 0.035
11,AACCACAA,-0.0691 ± 0.031
12,GCGCCTTA,0.277 ± 0.0035
13,AGCAATTA,-0.152 ± 0.0064
14,AATGACTG,-0.142 ± 0.015
15,AACTGAGG,0.0786 ± 0.069
16,GGTGAACA,0.00576 ± 0.0094
17,ACGTTCCA,-0.0197 ± 0.034
18,ACGCAATC,-0.12 ± 0.013
19,CCTGGACG,0.0437 ± 0.0018
20,AACTAGGT,-0.0895 ± 0.044
21,CTATCAGC,0.117 ± 0.012
22,CCATTGAA,-0.102 ± 0.034
23,GGATCGTA,-0.244 ± 0.076
24,GTCGGCTA,-0.0946 ± 0.064
25,GAGGGATA,-0.128 ± 0.13

row,Sequence,PBM E-score of 8-mer
1,CTAACCCC,-0.0519 ± 0.009
2,GGATCTAA,-0.118 ± 0.035
3,ATTACGTG,-0.12 ± 0.019
4,CGCTTACG,0.0984 ± 0.0067
5,ACACTCCA,0.24 ± 0.068
6,AGGCGTGG,0.265 ± 0.016
7,AACCAGTC,-0.0784 ± 0.098
8,CCAAGCAG,-0.173 ± 0.041
9,AACTAGCG,-0.0154 ± 0.092
10,AATCTGTG,0.143 ± 0.031
11,CTCATGAC,-0.102 ± 0.065
12,AGACGGCG,-0.0944 ± 0.11
13,AGTCTTTA,-0.193 ± 0.069
14,AGTATCAT,-0.221 ± 0.054
15,TACGGGCA,-0.148 ± 0.08
16,ATAGATAG,-0.176 ± 0.049
17,ACGCACAT,0.0989 ± 0.047
18,CTCGCGAC,0.326 ± 0.0051
19,CCAAGACA,-0.0176 ± 0.016
20,CTTGACTA,0.033 ± 0.076
21,AGCTGGAA,-0.132 ± 0.025
22,ACACGTCA,0.361 ± 0.0048
